In the supplement of paper PMC10338343:
± gives the standard deviation. Over roughly 6,600 sequences, “pre-steady-state target cleavage rate” has its median near 0.07; the highest 2% begin near 0.72. This is a selection; strong and weak results do not stand in their true shares.

These sequences were tested on MIWI (PIWIL1) piRISC loaded with Kctd7 piRNA (30 nt) (assay: pre-steady-state target cleavage rate (min^-1); MIWI and MILI are mouse PIWI proteins and EfPiwi is from a freshwater sponge; tags in brackets are library labels; higher = faster piRNA-guided slicing of the target). Conditions: guide: Kctd7 piRNA 5'p-UGUUAAUCUCUCAGAGAAGGUGACAGUGAU; auxiliary factor: 500 nM mouse GTSF1.
Procedure, shortened: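 The method was Cleave-'n-Seq, in which uncleaved targets from a transcribed, DNA-blocked target RNA library were sequenced after exposure to active affinity-purified piRISC carrying one synthetic guide, with or without GTSF1 partner protein. Reactions contained 0.1 nM library, 1 nM piRISC and, where present, 500 nM GTSF1 in HEPES–potassium acetate buffer at 33 °C for 0–8 or 0–960 min. Reads were normalised to depth and to weakly complementary targets, three trials were pooled, and k3 was capped at 0.0001 min^-1. The pre-steady-state cleavage rate came from a burst-and-steady-state fit.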

Row | Sequence | pre-steady-state target cleavage rate
1 | UUCUCUGUCACCUUCUCUGAGAGAUUUACA | 0.244 ± 0.036
2 | UACACUCAGACCUUCUCUGAGAGAUUAAGA | 0.0222 ± 0.0091
3 | AUCACUGUCACCUUCUCAGAGACAUUAACA | 0.136 ± 0.014
4 | UAGUGAGUCACCAUCUCUGAGAGAUUAUCA | 0.233 ± 0.038
5 | UUCACACACACCUUCUCUGAGAGAUUUUGA | 0.137 ± 0.035
6 | UAGUCUGUCACCUUCUCUGUGAGAUUAAGA | 0.0828 ± 0.017
7 | UAGUGUGUCUCCUUCUCUGAGAGAUAAACA | 0.0854 ± 0.018
8 | UAGUCUGUCACGUUCACUGAGAGAUUAACA | 0.305 ± 0.02
9 | AUCUCUGUCACCUUCUCUGAGAGAUUAUGA | 0.118 ± 0.023
10 | UAGACUGACACCUUCUCUGAGAGAUAUUGA | 0.0107 ± 0.0038
11 | UAGUGACUCACCUUCUCAGAGAGAUUAAGA | 0.0314 ± 0.0054
12 | AUCACUGUCACCUUCUCUGUGUGAUUAACA | 0.0275 ± 0.011
13 | UAGUGACACACCUUCUCUGAGAGAAAUACA | 0.0687 ± 0.015
14 | UAGUCUGUCACCUUCUCUCAGAGAUUAUGA | 0.00931 ± 0.0051
15 | UACACUCUCACCUUCUCUGAGAGAUAAACA | 0.181 ± 0.027
16 | UAGUGAGUCACCUUCUCUGAGUCAUUAACA | 0.0116 ± 0.0049
17 | UAGUGACAGUGCUUCUCUGAGACAUUUACA | < 0.0001
18 | UUCACUCUCACCUACUCUGAGAGAUUAACA | 0.495 ± 0.027
19 | UAGUGUGUCAGCUUCUCUGAGUGAUUAACA | 0.0228 ± 0.003
20 | UACACUGUCACCUUCUGUCAGAGAUUAACA | 0.0156 ± 0.0071

Row | Sequence | pre-steady-state target cleavage rate
21 | UAGUGACUCACCUUCUCUGAGAGAUUAUACA | 0.265 ± 0.037
22 | UAGUGACACACCUUCUCUGAGAGUAAAACA | 0.0391 ± 0.0073
23 | UAGUGACUCACCUUCUGAGAGAGAUUAACA | 0.0117 ± 0.0032
24 | UAGUGUGUCACAUUCUCUGAGAGAUUAACA | 0.639 ± 0.048
25 | UAGUGAGUCACCUUCUCCGAGAGAUUAACA | 0.497 ± 0.087
26 | UAGUGACACACGUUCUGUGAGAGAUUAACA | 0.0809 ± 0.0097
27 | UACACUGUCAGCUUCUCUGAGAGUUUAACA | 0.111 ± 0.014
28 | UUCAAUGUCACCUUCUCUGAGAGAUUAACA | 0.528 ± 0.018
29 | UACACUGUCACCUUCUCAGAGAGAUUAUCA | 0.132 ± 0.025
30 | UAGUGACUCACCUUCUCUGAGAGAGUAACA | 0.225 ± 0.027
31 | UACACUGUCACCUUCUGUGAGAGAUUUACA | 0.174 ± 0.024
32 | UACAGUGUCACCUUCUCUGAGAGAUUAUGA | 0.095 ± 0.022
33 | UAGUGUGUCACCUUCUCUGCGAGAUUAACA | 0.37 ± 0.034
34 | UAGUCUGUCAGCUUCACUGAGAGAUUAACA | 0.164 ± 0.013
35 | AUCACGGUCACCUUCUCUGAGAGAUUAACA | 0.637 ± 0.024
36 | UAGUGAGUCACCUUCUCUGAGAGUUUAUCA | 0.121 ± 0.035
37 | UAGUGACACUCCUUGUCUGAGAGAUUAACA | 0.0705 ± 0.012
38 | UACACUGUCACCAUCUCUGAGAGAAUAACA | 0.161 ± 0.032
39 | UAGUCUGUCACUUCUCUGAGAGAUUAACA | 0.438 ± 0.027
40 | UAGAGUGUCACCUUCUCUGAGAGAUUUUGA | 0.0863 ± 0.019
